Screen size: about 52,000 compounds; about 1,700 (3.3%) were called active. Rule as the data show it: active = survival mostly below about 52% (no sharp cut-off); inactive = mostly above about 56%. The list shows a part of the results.
What follows are molecules tested on Wild type (assay: growth inhibition of S. aureus wild type versus tarO mutant, primary screen, teichoic acid synthesis inhibitors, RN4220, OD600 (AID 463173)). Details: S. aureus RN4220 wild type/DeltatarO growth, OD600, 18 h, active compounds read low, screened at 18.75 µg/mL (by protocol).
For `CCc1ccc(C(=O)c2cn(CC(=O)Nc3cccc(OC)c3)c3cc4c(cc3c2=O)OCO4)cc1`, the survival was inactive: 91%.
For `CCn1c(SCc2c(F)cccc2Cl)nc(=O)c2c(C(=O)OC)cc(C3CC3)nc21`, the survival was inactive: 66%.
In the case of `O=C(c1ccccc1Br)N(Cc1ccco1)Cc1ccco1`, the survival was inactive: 82%.
`CCc1nn2c(=O)cc(COC(=O)c3ccccc3)nc2s1` was tested, and the survival was inactive: 91%.
With `Cc1ccc(-c2nnc(NC3CCCC3)s2)cc1` the survival was inactive: 126%.
In the case of `COc1ccc(C)c2sc(N3CCN(C(=O)c4cccc(F)c4)CC3)nc12`, the survival was inactive: 133%.
For `CCOc1ccccc1NC(=O)N(Cc1ccc(C)o1)C1CCN(C(C)=O)CC1`, the survival was inactive: 75%.
For `Cc1ccc(-c2cc3ncc4c(n3n2)-c2cc(F)ccc2OC4)cc1`, the survival was inactive: 132%.
For `CCOC(=O)CNC(=O)N1CCCN(S(=O)(=O)c2ccc3c(ccn3CC)c2)CC1`, the survival was inactive: 68%.
For `COc1ccc(C)cc1NC(=O)C1CCCN(c2ncnc3onc(C)c23)C1` (stereo not given), the survival was inactive: 81%.
`Nc1nnc(CCS(=O)(=O)c2cc(Cl)ccc2Cl)s1` was tested, and the survival was inactive: 111%.
For `CCOc1ccccc1NC(=O)CN(C)S(=O)(=O)c1ccc(C(=O)N2CCOCC2)s1`, the survival was inactive: 72%.
For `O=c1c(=O)n(-c2ccc(F)c(F)c2)ccn1Cc1ccc(F)cc1Cl`, the survival was inactive: 83%.
With `CCOC(=O)C1(CC)C(=O)OC(C(=O)NC2CCCCC2)C1C` (stereo not given) the survival was inactive: 112%.
`CCOc1ccc(NC(=O)N2CCN(c3nnc(C)c4c(C)n(-c5ccccc5)nc34)CC2)cc1` was tested, and the survival was inactive: 131%.
For `Cc1cccc(NC(=O)CCn2cnc3ccccc3c2=O)c1`, the survival was inactive: 133%.
`CCOC(=O)C1=C(CS(=O)(=O)c2ccc(F)c(C)c2)NC(=O)NC1c1ccccc1OC` (stereo not given) was tested, and the survival was inactive: 84%.
For `CCCc1nnc(NC(=O)c2nc(SCC)ncc2Cl)s1`, the survival was inactive: 84%.
With `CCc1nn(CC(=O)N2CCCCC2)c(=O)c2cc3occc3n12` the survival was inactive: 73%.
In the case of `CCOC(=O)c1noc2ncn(CC(=O)Nc3cccc(C(F)(F)F)c3)c(=O)c12`, the survival was inactive: 72%.
`Cc1cc(Nc2cccc(Cl)c2)nc2ccc(NC(=O)c3cncc(Br)c3)cc12` was tested, and the survival was inactive: 73%.
In the case of `O=C(CC1N=C2c3ccccc3N=C(SCc3ccccc3Cl)N2C1=O)NCCc1ccccc1` (stereo not given), the survival was inactive: 74%.
For `CCCCn1c(=O)n(-c2cc(OC)ccc2OC)c(=O)c2c3c(sc21)CN(C(C)=O)CC3`, the survival was inactive: 114%.
For `COc1ccc(-n2nc(C(=O)Nc3cc(C)ccn3)c3c4ccccc4n(C)c3c2=O)cc1`, the survival was inactive: 75%.
In the case of `Cc1oc(-c2ccccc2Cl)nc1CS(=O)(=O)CC(=O)NCc1ccc(F)cc1`, the survival was inactive: 83%.

From PubChem BioAssay AID463173 (ICCB-Longwood Screening Facility, Harvard Medical School, 2010)
